In all, about 33,000 sequences were measured (“E-score (-0.5 to 0.5)”: median about -0.021, highest 2% from about 0.32 on). This is one part of the list.

This experiment addresses T1, Zap1 (UniProt P47043).
T1 sequence: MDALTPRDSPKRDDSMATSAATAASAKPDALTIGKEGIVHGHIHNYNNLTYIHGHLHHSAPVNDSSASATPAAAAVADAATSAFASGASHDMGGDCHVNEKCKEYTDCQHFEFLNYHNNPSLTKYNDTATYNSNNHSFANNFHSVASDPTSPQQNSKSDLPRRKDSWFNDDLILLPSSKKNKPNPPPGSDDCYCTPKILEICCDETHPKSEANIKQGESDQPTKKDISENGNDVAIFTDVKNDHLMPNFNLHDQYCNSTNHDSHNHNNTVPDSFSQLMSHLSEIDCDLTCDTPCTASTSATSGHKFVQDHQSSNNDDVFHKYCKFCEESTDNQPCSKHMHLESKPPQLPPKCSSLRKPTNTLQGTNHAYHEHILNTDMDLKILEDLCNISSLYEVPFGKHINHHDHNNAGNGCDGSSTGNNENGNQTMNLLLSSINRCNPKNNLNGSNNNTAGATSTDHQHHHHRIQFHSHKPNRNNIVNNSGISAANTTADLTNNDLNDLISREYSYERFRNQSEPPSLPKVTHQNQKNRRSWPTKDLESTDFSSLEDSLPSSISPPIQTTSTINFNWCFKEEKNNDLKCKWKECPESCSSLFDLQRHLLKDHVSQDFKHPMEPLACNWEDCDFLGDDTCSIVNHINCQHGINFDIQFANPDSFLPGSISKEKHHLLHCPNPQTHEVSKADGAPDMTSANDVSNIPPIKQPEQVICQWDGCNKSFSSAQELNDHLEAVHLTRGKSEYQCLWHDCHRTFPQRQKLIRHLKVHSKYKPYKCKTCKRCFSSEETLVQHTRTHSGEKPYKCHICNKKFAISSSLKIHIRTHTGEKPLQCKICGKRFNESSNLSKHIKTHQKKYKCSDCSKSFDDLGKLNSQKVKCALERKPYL
The experiment can be described thus: PBM E-score (8-mer binding enrichment) (E-score (-0.5 to 0.5)); higher = stronger / more preferred TF binding; most listed sequences are background and not binding sites. The following applies: protein concentration: 200 nM; construct: GST-full length. A digest of the protocol:
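For each ungapped eight-base word taken together with its reverse complement, the Universal PBM Analysis Suite assigned an E-score. Binding data came from GST-tagged yeast transcription factors, applied at about 100-200 nM, on universal all-10-mer Agilent arrays made double-stranded by primer extension. Fluorescent anti-GST marked bound protein, and scans were normalised with masliner.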
For the sequence CAGGCGTC, the “PBM E-score” value is -0.226. The result for ACTGACAG reads 0.0286; that for AGGCTGAC, -0.242; that for CCATAATC, 0.17. The figure for AAGCTAGC is -0.215; for ATGCCGTG it is -0.224. Regarding CAGAGAAG, the “PBM E-score” value is -0.0979. The result for GGAATAGA reads 0.0152. With GAAGTTGA, the “PBM E-score” value was -0.117.

Consider AAGGGTAT, for which the “PBM E-score” value came to 0.421. Consider CGACCGAA, for which the “PBM E-score” value was 0.0132.

For AGATCTAA, the “PBM E-score” value was -0.0944. On to AGAGTGCG, for which the “PBM E-score” value worked out at 0.0289.

With GCCCGTAA, the “PBM E-score” value turned out to be 0.0448.

Regarding AATTCATG, the “PBM E-score” value was determined as 0.131. The figure for CCACAAGG is 0.33; for GCGGATCC it is -0.0744. The figure for CCACTAGC is -0.0965. The result for CACCGATC reads -0.0332; that for CAATGCCC, -0.0391. As to ACTCACAA, the “PBM E-score” value came to 0.162.

With AGGTGAAA, the “PBM E-score” value was 0.0415.

With GAACGCGC, the “PBM E-score” value was -0.00333. Consider GCGACGAC, for which the “PBM E-score” value was -0.223. Consider AGAGTGGA, for which the “PBM E-score” value was -0.123. The figure for CCATAGAG is 0.00274; for GAGACCTA it is 0.012; for GCCGTTCA it is -0.0892. The result for ACCACAAT reads 0.186. The result for GCCGCCGC reads -0.0987; that for ATGCCGAC, -0.0634; that for CTACTAAC, 0.216. In the case of ATGGGGAC, the “PBM E-score” value turned out to be 0.0936. The result for ACCTCTCA reads 0.344. Consider CATGATTA, for which the “PBM E-score” value is 0.188.

Consider AACGCCAC, for which the “PBM E-score” value is -0.161.

Consider CAAAGACG, for which the “PBM E-score” value is -0.0783. The figure for CTCATCGA is -0.0228; for AAAGCAGC it is -0.0521; for ACTACCCG it is 0.261. For the sequence AGACGGTG, the “PBM E-score” value is -0.179. The figure for CAGCAATG is -0.172. The result for CAAGACAG reads -0.0336; that for ACGAGTTC, 0.0137; that for CTACCTTC, 0.237. The result for ACACAGAT reads -0.146; that for CCCAGCGA, -0.0801.

Take GGCCAACA: the “PBM E-score” value was -0.18. The figure for ATTCTCTG is -0.159; for GAGCTATA it is -0.233; for CGCCTCCG it is -0.295. The result for AGTTATCA reads 0.186; that for AGAACTAT, -0.104. The figure for ACCCGAGC is 0.165; for TGTATCAA it is 0.0916. For AGTGCTGG, the “PBM E-score” value was -0.209. Take GCCAGACA: the “PBM E-score” value turned out to be 0.0344.

In the case of GGTGTCAC, the “PBM E-score” value is 0.0261.

As for CTACTGAC, the “PBM E-score” value was -0.0865. As for ATACCGGG, the “PBM E-score” value turned out to be 0.0655.

With ACAAACTG, the “PBM E-score” value was -0.16.

For the sequence AGGCGAGG, the “PBM E-score” value is -0.0846. The result for CGGGAAGA reads -0.0305.

Take ATGTTATC: the “PBM E-score” value was found to be 0.0946. The result for AGGCAAAT reads -0.127; that for AAAAACAG, 0.0872; that for ATGCATGC, -0.173. The result for TCGACCCA reads -0.00403. The result for AACGGAAC reads 0.0362; that for GACTTGCA, -0.0829. Consider AGCAATAA, for which the “PBM E-score” value was 0.0355.

AGATCGCT: the “PBM E-score” value is -0.204. The result for CTCGCTAA reads 0.0275; that for ATTCAAAT, 0.037; that for AGTTGTAT, 0.00413. The figure for ATTACGGG is 0.133.

For the sequence ATTGGCAC, the “PBM E-score” value is -0.121. The figure for GATACGGA is -0.122.

On to CTACGGAC, for which the “PBM E-score” value is -0.105. The result for GAGCGTTA reads -0.00965; that for GCAAGCCA, -0.261. The figure for GAATATGC is -0.197; for TAAGATCA it is 0.163; for AGACACCA it is -0.0997. The figure for ACCCCGCA is 0.24. In the case of AGAGTACA, the “PBM E-score” value is -0.0126.

These data come from the supplement of paper PMC3334620.
